The campaign covered roughly 340,000 compounds. About 6,900 (2%) were called active. Cut-off read from the data, not from the text of the source: active = inhibition above about 30%; inactive = below that, where a call was filed. This is a selection; strong and weak results do not stand in their true shares. The source gives no active or inactive call for entries shown without one. Some compounds were tested as several samples or in several runs, with calls that do not always agree.
molecular target: D(2) dopamine receptor (Homo sapiens) (UniProt P14416); assay: HTS Assay for Allosteric Antagonists of the Human D2 Dopamine Receptor: Primary Screen for Antagonists; conditions: HEK293 TREx D2 cells, calcium flux, dopamine EC80; at 10 µM; stronger effect = higher value; note: 0% is about no effect
Chain of UniProt P14416 (P14416 whole entry, looked up): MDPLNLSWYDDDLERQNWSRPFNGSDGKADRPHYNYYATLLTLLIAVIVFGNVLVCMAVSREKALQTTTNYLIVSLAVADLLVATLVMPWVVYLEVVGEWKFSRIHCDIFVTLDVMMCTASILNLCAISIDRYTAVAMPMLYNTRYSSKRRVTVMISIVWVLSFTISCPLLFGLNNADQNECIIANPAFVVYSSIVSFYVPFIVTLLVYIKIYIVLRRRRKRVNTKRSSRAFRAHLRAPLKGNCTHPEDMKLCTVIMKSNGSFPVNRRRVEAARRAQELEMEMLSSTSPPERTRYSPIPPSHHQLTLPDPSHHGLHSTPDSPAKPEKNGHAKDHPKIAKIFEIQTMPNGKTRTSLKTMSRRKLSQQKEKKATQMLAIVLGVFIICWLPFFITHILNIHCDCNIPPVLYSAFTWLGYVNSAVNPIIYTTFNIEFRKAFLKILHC
Method in brief: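 Tetracycline-induced HEK293 TREx cells expressing D2 receptor forced-coupled to calcium signalling, loaded with no-wash calcium dye. Compounds added and calcium flux read 180 s, then dopamine added at EC80 and read a further 180 s.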

Compound | inhibition
Cc1ccc(Cl)cc1N1CCN(S(=O)(=O)c2cn(C)c(C)n2)CC1 | 19.3%
CCOc1ccccc1C1C(C(=O)Nc2ccccc2)=C(C)Nc2nc(SCC(=O)c3ccc(C)cc3)nn21 (configuration not stated) | -1.09%
COc1ccc(C(=O)c2sc3nc4c(c(C(F)(F)F)c3c2N)CN(C(C)=O)CC4)cc1OC | 2.73%
Cc1ccc(-c2c3c(=O)n(C)c(=O)n(C)c3c3n2-c2ccccc2NC3c2ccc(C)cc2O)cc1 (configuration not stated) | 9.65%
O=C(c1cc2ccccc2[nH]1)N(Cc1cccnc1)CC1CCCN(C2CCCCC2)C1 (configuration not stated) | active: 38.8%
COc1ccc(-c2cc(C(=O)N3CCCCC3C)no2)cc1OC (configuration not stated) | 0.112%
CCOc1ccc(OCC)c(NC(=O)c2nnn(CC(=O)Nc3cc(Cl)ccc3OC)c2N)c1 | 2.3%
COc1ccc(C(=O)NCc2ccc3c(c2)CCN3C(C)=O)c(OC)c1 | -3.19%
Cc1ccccc1NC(=O)C1CCN(S(=O)(=O)c2c(C)noc2/C=C/c2ccco2)CC1 | 2.1%
COc1ccc(NC(=O)C2CCCN(c3ncnc4onc(C)c34)C2)cc1OC (configuration not stated) | -5.83%
CCC(=O)N1CCc2cc(CNC(=O)c3cccc(N(C)C)c3)ccc21 | -14.3%
CCc1ccccc1N1C(=O)CN(S(=O)(=O)CC)CC1(C)C(=O)NC1CCCCC1 (configuration not stated) | -3.8%
Cc1ccc(Cn2c(SCc3ccc(C(=O)N4CCCCC4)cc3)nc3ccncc32)cc1 | -24.6%
CCC(=O)OC1=C(C(C)=O)N(Cc2ccccc2)S(=O)(=O)c2ccccc21 | -6.16%
CCc1ccccc1NC(=O)Cn1nc(CC)n2c(cc3sccc32)c1=O | -10.2%
Cn1ncc2c(Nc3cccc(F)c3)ncnc21 | -17.2%
CC[n+]1c(-c2ccc(C)cc2)csc1Nc1c(C)n(C)n(-c2ccccc2)c1=O | active: 51.5%
CC(C)Sc1ncc(Cl)c(C(=O)Nc2ccc(S(=O)(=O)N(C)c3ccccc3)cc2)n1 | 6.04%
Fc1ccc2ncc3c(-c4ccccc4)n[nH]c3c2c1 | -19.7%
COC(=O)CCn1cnc2onc(-c3cc(F)cc(F)c3)c2c1=O | -19.3%
Cc1ccc(C)c(CS(=O)(=O)c2cn(CC(=O)N(C(C)C)C(C)C)c3ccccc23)c1 | 2.2%
O=C(Nc1c(C(=O)Nc2ccccc2F)oc2ccccc12)c1cc2ccccc2o1 | -18.8%
COc1ccc(C2CNC(=O)C2)cc1OC1CCCC1 (configuration not stated) | active: 71.2%
COc1cc(C(CC(=O)NCCC(C)C)N2Cc3ccccc3C2=O)cc(OC)c1OC (configuration not stated) | -2.97%
COc1ccc(Cl)cc1NC(=O)CN(C)C(=O)CCNC(=O)c1ccccc1OC | active: 30.6%

Compound | inhibition
COc1cc(NC(=O)CN2CCN(CC(=O)Nc3ccc(F)cc3)CC2)cc(OC)c1 | 5.22%
Cc1ccccc1C(=O)NC1CC2CCCC(C1)N2Cc1ccc(Cl)cc1 (configuration not stated) | active: 75.6%
Cc1cccc(N(C)C(=O)CCNS(=O)(=O)c2ccc3c(c2)CCN3C(=O)C2CC2)c1 | 9.02%
N#Cc1ccc(CSc2nc3c(c(=O)[nH]2)CCCC3)cc1 | -9.15%
Cc1ccc2c(c1)cc1c(=O)n(CC(=O)N3CCCCC3)nc(C)n12 | 10.7%
Cc1cccc(N(C)C(=O)CSc2nc3ncccc3o2)c1 | 2.64%
C[C@H](N)c1nnc(SCC(=O)c2ccc(Cl)cc2)o1 | active: 40.4%
CCc1ccc(CN2CCN(c3ncccn3)CC2)cc1 | active: 94.8%
CCc1ccc(C(=O)c2cn(CC(=O)Nc3ccc(C)c(C)c3)c3ccccc3c2=O)cc1 | -2.84%
O=C(NCC1CCCO1)c1c[nH]c2ccc(S(=O)(=O)Nc3cccc(C(F)(F)F)c3)cc2c1=O (configuration not stated) | 27.2%
COc1ccc2c(c1)c1c(c(=O)n(-c3ccccc3)c(=O)n1CC(=O)Nc1ccc(C)c(C)c1)n2C | -11.8%
CN(Cc1ccccc1)S(=O)(=O)c1nnc(NC(=O)c2ccccc2)s1 | -21.7%
Cc1ccc(CN2CCc3nc(N4CCN(C)CC4)ncc3C2)s1 | 2.92%
Cc1ccc(-n2ncc3c(N4CCC(Cc5ccccc5)CC4)ncnc32)cc1 | 9.07%
O=C(c1ccc2c(c1)N(Cc1ccccc1F)C(=O)c1ccccc1S2=O)N1CCOCC1 (configuration not stated) | -2.55%
CC(C)(C)CC(=O)NC1CC(=O)N(c2ccc3c(c2)OCCO3)C1 (configuration not stated) | -4.36%
COc1ccccc1OCC(=O)Nc1nc(-c2ccc(Br)cc2)ns1 | 5.87%
CC(C)N(Cc1ccccc1)C(=O)CCS(=O)(=O)c1ccc2c(c1)oc(=O)n2C | -6.02%
Cc1ccc(NC(=O)C2CCN(S(=O)(=O)c3c(C)noc3/C=C/c3ccco3)CC2)cc1C | 7.54%
Cc1ccc(S(=O)(=O)c2cn(C)c3cc(N4CCCC(C)C4)c(F)cc3c2=O)c(C)c1 (configuration not stated) | 8.46%
Cc1cc2c(cc1S(=O)(=O)N(CCN(C)C)Cc1ccco1)OCC(=O)N2 | -12%
O=C(NCCOCCn1c(=O)oc2ccccc21)Nc1ccc(F)cc1 | -4.4%
O=C1N/C(=N\S(=O)(=O)Cc2ccccc2)S/C1=C/c1cc([N+](=O)[O-])ccc1O | active: 30.6%
COc1ccc(OCC(=O)Nc2cccc(-c3nc4ccccc4s3)c2C)cc1 | 15%
CCC1CN(C(=O)N2CCC(C(=O)NCc3ccccc3C)CC2)c2ccccc2O1 (configuration not stated) | 9.44%

Compound | inhibition
Cc1ccc(-c2noc(CNC(=O)c3ccccc3)n2)cc1 | 5.48%
Cc1ccc(-c2cc3c(n2-c2ccc(C)cc2)CC(C)(C)CC3=O)cc1 | -24.1%
CC(C)NC(=O)C1CCN(c2nc3ccccc3nc2C(F)(F)F)CC1 | -1.16%
Cc1ccc(Cn2c(C)c(CNCCCc3ccccc3)c(C(=O)O)c2C)cc1 | -7.99%
CCCCNC(=O)CSc1nnc(C)c2c(C)n(-c3ccccc3)nc12 | -13.2%
Cc1ccc(C(=O)n2nc(C)c(S(=O)(=O)N3CCCCCC3)c2C)cc1 | -6.34%
CCOC(=O)c1ccc(CN(Cc2ccccc2C)S(=O)(=O)c2ccc(C(C)(C)C)cc2)cc1 | -5.98%
Cc1cccc(-c2noc(-c3ccc(N4CCN(C)CC4)c([N+](=O)[O-])c3)n2)c1 | 10.9%
COc1ccc(C)cc1NC(=O)c1ccc2c(c1)CCN2S(=O)(=O)c1ccc(Cl)cc1 | 0.574%
COc1ccc(CNc2nc3c(c(=O)n(C)c(=O)n3C)n2Cc2ccccc2Cl)cc1 | 9.29%
Cc1ccc(C)c(CN2CCC(CNC(=O)c3cc4ccc5cccnc5c4[nH]3)CC2)c1 | 22.7%
Cc1ccc(C2=CC(c3c(F)cccc3Cl)n3ncnc3N2)cc1C (configuration not stated) | -12.4%
CN(C)C1(CNC(=O)c2cccc(S(=O)(=O)NCc3ccccc3)c2)CCCCC1 | active: 44.5%
CC(=O)Nc1cc(-c2nc3ccccc3s2)ccc1C | 16.7%
CCn1c(-c2ccc(S(=O)(=O)N3CCOCC3)cc2)csc1=Nc1ccc(C)c(Cl)c1 | -22.2%
O=C(CSc1nnc2[nH]c(=O)cc(-c3ccccc3)n12)Nc1ccc(F)cc1F | 5.44%
CCCn1c(-c2cccc(Br)c2)nc2ccccc21 | 0.43%
Cn1c(CSCc2ccccc2Cl)nnc1SCC(=O)Nc1nccs1 | active: 59.7%
Cn1ncc(C(=O)N2CCN(c3ccc(F)cc3)CC2)c1C1CCN(C(=O)OC(C)(C)C)CC1 | 3.94%
CCCN1C(=O)C(Cc2nc3ccccc3c(=O)n2-c2cccc(C)c2)c2ccccc21 (configuration not stated) | 16.8%
c1ccc(-c2ccccc2OCCCCN2CCCCCC2)cc1 | active: 148%
Cc1cc(NC(=O)COc2ccccc2)cc(-c2nc3ccccc3o2)c1O | 11.8%
CC(C)(C)OC(=O)N1CCC(c2nnc(SCc3ccccc3)o2)CC1 | 15.9%
COc1ccc(-c2noc(-c3ccc(N4CCCCC4C)c([N+](=O)[O-])c3)n2)cc1OC (configuration not stated) | -4.28%
COc1ccccc1CNC(=O)c1ccc(N2Cc3cccc(OC)c3Oc3ncccc32)s1 | 4.94%

Compound | inhibition
O=C1OC(C(=O)Nc2ccc(Cl)c(C(F)(F)F)c2)Cc2ccccc21 (configuration not stated) | -19.7%
CCOc1ccccc1CNC(=O)c1ccc2c(c1)sc1nc(-c3cccc(OC)c3)cn12 | 8.16%
CC(C)n1c(SCC(=O)Nc2ccc(F)cc2)nc2c(oc3ccccc32)c1=O | 6.2%
CC(C)C12CN3CC(C(C)C)(CN(C1)C3c1ccc(OCc3ccccc3)cc1)C2=O (configuration not stated) | -9.5%
CC(=O)c1cccc(NC(=O)c2ccc(-n3c(C)nnc3C)cc2)c1 | 21.3%
COC(=O)c1cc(S(=O)(=O)NCC2CCN(Cc3ccc(C)cc3)CC2)c[nH]1 | 11%
CCOc1ccc(-n2c(SCC(=O)Nc3ccc(F)cc3)nc3c([nH]c4ccccc43)c2=O)cc1 | -1.45%
Cc1cc(C)c2c(=O)cc(C(=O)Nc3sc4c(c3C(=O)NCc3cccnc3)CCCC4)oc2c1 | -4.24%
CCOC(=O)c1c(NC(=O)c2cc(C)on2)sc(C)c1C | 12.5%
CCOc1ccc(NC(=O)CCS(=O)(=O)c2cccc3nonc23)cc1 | -2.65%
Cc1ccc(-n2ncc3c(N4CCN(C)CC4)ncnc32)cc1Cl | -16%
CNC(=O)c1ccc(Nc2nnc(-c3ccc(C)c(S(=O)(=O)N4CCCCC4)c3)c3ccccc23)cc1 | 10.8%
CCc1cccc(NC(=O)CSc2ncccc2C(=O)Oc2ccccc2Cl)c1 | -19.3%
CNC(=O)c1c[nH]c2ccc(S(=O)(=O)Nc3cccc(Cl)c3C)cc2c1=O | 1.26%
Cc1cc(C)cc(OCc2ccc(C(=O)Nc3ccccc3F)o2)c1 | 8.08%
COc1ccc(CNC(=O)CCC(=O)N2CC3CCCN3c3ccccc32)c(OC)c1 (configuration not stated) | 9.25%
Cc1ccc2c(c1)N(C(=O)N1CCC(C(=O)NC3CCCCCC3)CC1)CC(C)O2 (configuration not stated) | -3.14%
COc1cc(NC(=O)Cc2c(C(=O)O)c(C)cn2C)cc(OC)c1 | 3.54%
CCOc1ccc(C2C(=O)N(C3CCCCC3)CC(=O)N2C2CCCC2)cc1OC (configuration not stated) | 14.8%
O=C(CSc1nnc(NC(=O)c2c(F)cccc2F)s1)NCC1CCCO1 (configuration not stated) | active: 73.8%
Cc1ccc2nc(-c3ccc(NC(=O)COc4ccccc4)cc3)sc2c1 | -1.46%
CCN(c1cccc(C)c1)S(=O)(=O)c1nnc(NC(=O)c2ccccc2Cl)s1 | 19.3%

Source: PubChem BioAssay AID485344 (National Center for Advancing Translational Sciences (NCATS), 2010)
